According to the supplement of paper PMC3334620:
In all, about 33,000 sequences were measured (“E-score (-0.5 to 0.5)”: median about -0.035, highest 2% from about 0.35 on). The list shows a part of the results.

What follows are sequences tested against T1, Pdr3 (UniProt P33200) (assay: PBM E-score (8-mer binding enrichment) (E-score (-0.5 to 0.5)); higher = stronger / more preferred TF binding; most listed sequences are background and not binding sites). Conditions: protein concentration: 200 nM; construct: GST-full length.
T1 sequence: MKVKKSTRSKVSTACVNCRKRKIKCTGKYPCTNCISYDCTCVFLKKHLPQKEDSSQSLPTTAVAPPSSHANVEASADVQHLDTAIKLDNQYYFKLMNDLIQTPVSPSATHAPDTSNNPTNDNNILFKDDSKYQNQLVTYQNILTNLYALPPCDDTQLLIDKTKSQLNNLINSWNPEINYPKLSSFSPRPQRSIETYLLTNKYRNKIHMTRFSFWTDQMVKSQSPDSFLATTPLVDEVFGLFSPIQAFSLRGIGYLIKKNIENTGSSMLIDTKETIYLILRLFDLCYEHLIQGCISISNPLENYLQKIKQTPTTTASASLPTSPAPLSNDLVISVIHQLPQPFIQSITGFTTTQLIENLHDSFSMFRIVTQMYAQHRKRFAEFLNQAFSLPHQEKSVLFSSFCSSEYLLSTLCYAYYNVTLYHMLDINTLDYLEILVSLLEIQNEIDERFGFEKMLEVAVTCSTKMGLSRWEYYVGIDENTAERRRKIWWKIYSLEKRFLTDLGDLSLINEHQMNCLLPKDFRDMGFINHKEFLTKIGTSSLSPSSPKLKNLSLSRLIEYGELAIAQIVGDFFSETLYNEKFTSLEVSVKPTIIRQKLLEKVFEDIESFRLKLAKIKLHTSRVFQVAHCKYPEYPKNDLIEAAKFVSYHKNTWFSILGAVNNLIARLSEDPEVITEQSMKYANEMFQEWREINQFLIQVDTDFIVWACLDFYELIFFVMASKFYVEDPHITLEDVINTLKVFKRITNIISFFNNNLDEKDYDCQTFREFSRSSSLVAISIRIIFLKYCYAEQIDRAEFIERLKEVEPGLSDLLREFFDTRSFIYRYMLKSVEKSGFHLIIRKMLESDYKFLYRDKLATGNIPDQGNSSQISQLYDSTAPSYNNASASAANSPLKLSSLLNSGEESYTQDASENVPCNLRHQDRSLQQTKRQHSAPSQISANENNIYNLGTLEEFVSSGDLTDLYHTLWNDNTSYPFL
Method in brief: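 Yeast transcription factors, full-length or as DNA-binding domains, were expressed with a GST tag using PURExpress in vitro transcription/translation. At about 100-200 nM they were applied to universal all-10-mer Agilent arrays, double-stranded by primer extension on fresh or once-stripped slides. Fluorescent anti-GST detected bound protein, and masliner normalised the scans. E-scores for ungapped eight-base words, pooled with reverse complements, came from the Universal PBM Analysis Suite.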

| Sequence | PBM E-score |
| --- | --- |
| ACTCGGTG | -0.0495 |
| ATGTAACC | 0.0796 |
| CAGACAAC | 0.083 |
| ACACGGAG | 0.284 |
| CTCTTTCC | 0.141 |
| CCTACTGA | -0.159 |
| GCCGGATA | 0.368 |
| GGGTTTCA | 0.0864 |
| GGTCCCGA | 0.287 |
| CGCGCTAC | 0.134 |
| ATAGCCTC | 0.0247 |
| AAACTTGG | -0.0784 |
| TGTCAACA | -0.0926 |
| CGCACAAA | 0.0204 |
| ACGAACCT | -0.187 |
| ATTCGGAA | 0.415 |
| CTAGTATA | -0.0649 |
| AGGGTACT | -0.16 |
| ATCCAGCG | 0.174 |
| ACTCAGAG | -0.128 |
| AGACTCAT | -0.0927 |
| TAGACATA | -0.0402 |

| Sequence | PBM E-score |
| --- | --- |
| AATGATGT | 0.054 |
| GAAGCCTC | -0.115 |
| TGAGTCCA | -0.18 |
| AACTACAA | 0.115 |
| AGTTCCGG | 0.464 |
| GCCTTACC | -0.192 |
| GGTGCGGA | 0.275 |
| GCACCGTA | 0.067 |
| GGTTAGGA | -0.338 |
| AACCATAT | 0.0335 |
| CGGAGCGA | 0.378 |
| GGAGTAAA | 0.114 |
| ATCGCGCC | 0.203 |
| AACAGCTT | 0.048 |
| ATAAGCTG | -0.144 |
| CACCTGAC | -0.221 |
| ATTCGGGG | 0.337 |
| CGGCTCCC | 0.131 |
| CGCGCTTC | 0.139 |
| CAAGTGGC | -0.0242 |
| GCCAAGAA | -0.0394 |
| TCTCAAAA | -0.0162 |

| Sequence | PBM E-score |
| --- | --- |
| TCGCGACA | 0.12 |
| CCAGGGGA | 0.00098 |
| CTTACCGA | -0.0259 |
| AAGCATGA | -0.0846 |
| AATGATGA | 0.112 |
| CTGGGATA | 0.0272 |
| AGAATTTA | -0.053 |
| TCGTTTAA | -0.231 |
| TCGCAAAA | -0.0413 |
| GGCGATAC | -0.018 |
| TCGCTCAA | 0.041 |
| TAAGAACA | 0.122 |
| ACACAGTG | 0.0496 |
| GTTCTTTA | 0.0362 |
| GATCAACC | 0.138 |
| ATTCATGC | 0.0716 |
| GTTCGCTA | -0.0819 |
| ACCCTGAA | -0.18 |
| AGCAACGA | -0.105 |
| GATACGCA | -0.137 |
| GGGGCACA | -0.0775 |
| GGCAAGAA | -0.0748 |

| Sequence | PBM E-score |
| --- | --- |
| GAGCAGGA | -0.0326 |
| AGCCACCA | -0.222 |
| ATATATAG | 0.121 |
| TCTAATAA | -0.272 |
| ACGTATGC | -0.121 |
| ATTGAGGA | -0.0437 |
| AAGGGTGG | -0.171 |
| ACTGGAGG | -0.0195 |
| GCTACCAA | -0.138 |
| GCCGCGCC | 0.098 |
| AGATAGTG | -0.116 |
| CCTAGAAG | -0.146 |
| CTGAATTC | -0.136 |
| ACTCTGGA | 0.00059 |
| AGGCTTCA | -0.157 |
| ATGTTCCA | 0.0325 |
| ATAGGGAC | -0.0107 |
| GCGTTGCA | 0.124 |
| AAAGCCTG | -0.27 |
| GCCTCGAA | -0.119 |
